In the supplement of paper PMC7826260:
Some of the results follow. Cleavage of a single-stranded DNA pool by Rep nickase domains was read by sequencing (1 h at 37 °C, 3 µM enzyme); the outer parts of the 90-letter strands are left off. Numbers give uncut DNA relative to the enzyme-free pool, as log2; the lower, the more was cut; hits are not called. Shares of all reads are compared; uncut strands gain when others are lost, and binding without cutting may add a little.

Experiments:
Test in all cases: uncleaved DNA left, log2 of reads against the no-enzyme library (log2 ratio); higher = less cleavage (more negative = more Rep cleavage of the k-mer); sequences stand for … in CTCGTCCG…ACCGGAGA
[1] = test system: T1, Rep nickase domain of Muscovy duck circovirus
T1 sequence (residues 1-111, tag not shown): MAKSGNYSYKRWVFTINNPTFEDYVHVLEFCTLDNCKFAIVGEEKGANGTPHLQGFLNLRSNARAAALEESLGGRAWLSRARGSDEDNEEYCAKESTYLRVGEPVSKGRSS
Experimental: (§1)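 A pool of 90-nt single-stranded DNAs with seven random bases just before the constant AC of the nick site (name = the seven bases) was cut by 3 µM recombinant His6-SUMO-tagged Rep nickase domain (300 nM DNA, 50 mM HEPES pH 8.0, 50 mM NaCl, 1 mM MnCl2, 1 h, 37 °C, three replicates). Uncut DNA was amplified and sequenced.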

[2] = test system: T2, Rep nickase domain of banana bunchy top virus
T2 sequence (residues 1-94, tag not shown): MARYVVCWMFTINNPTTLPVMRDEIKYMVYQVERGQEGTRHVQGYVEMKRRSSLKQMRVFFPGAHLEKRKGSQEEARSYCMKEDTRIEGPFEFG
Experimental: as §1

[3] = test system: T3, Rep nickase domain of cabbage leaf curl virus
T3 sequence (residues 1-116, tag not shown): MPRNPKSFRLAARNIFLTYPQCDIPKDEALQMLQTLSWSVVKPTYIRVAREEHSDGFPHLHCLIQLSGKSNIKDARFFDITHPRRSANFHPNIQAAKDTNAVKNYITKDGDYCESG
Experimental: as §1

[4] = test system: T4, Rep nickase domain of chickpea chlorotic dwarf virus
T4 sequence (residues 1-124, tag not shown): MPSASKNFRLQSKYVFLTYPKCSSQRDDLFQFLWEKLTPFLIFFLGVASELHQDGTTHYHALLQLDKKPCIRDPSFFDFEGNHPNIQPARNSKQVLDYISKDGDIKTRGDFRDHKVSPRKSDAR
Experimental: as §1

[5] = test system: T5, Rep nickase domain of faba bean necrotic yellows virus
T5 sequence (residues 1-98, tag not shown): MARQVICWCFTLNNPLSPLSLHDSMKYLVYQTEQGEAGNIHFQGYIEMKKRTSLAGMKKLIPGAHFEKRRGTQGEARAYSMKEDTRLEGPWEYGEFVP
Experimental: as §1

[6] = test system: T6, Rep nickase domain of maize striate mosaic virus
T6 sequence (residues 1-117, tag not shown): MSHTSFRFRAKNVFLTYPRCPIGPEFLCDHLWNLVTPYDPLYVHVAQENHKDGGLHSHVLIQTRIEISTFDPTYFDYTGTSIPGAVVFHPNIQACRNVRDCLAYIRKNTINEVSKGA
Experimental: as §1

[7] = test system: T7, Rep nickase domain of porcine circovirus 2
T7 sequence (residues 2-116, tag not shown): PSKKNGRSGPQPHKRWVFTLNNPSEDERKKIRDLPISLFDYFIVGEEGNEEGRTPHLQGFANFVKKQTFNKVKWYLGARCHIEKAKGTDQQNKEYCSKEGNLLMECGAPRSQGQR
Experimental: as §1

[8] = test system: T8, Rep nickase domain of tomato golden mosaic virus
T8 sequence (residues 1-124, tag not shown): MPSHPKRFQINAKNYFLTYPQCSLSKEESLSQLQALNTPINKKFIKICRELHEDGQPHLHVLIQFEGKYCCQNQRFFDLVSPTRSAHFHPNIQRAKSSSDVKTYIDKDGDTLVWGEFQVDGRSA
Experimental: as §1

[9] = test system: T9, Rep nickase domain of tomato yellow leaf curl virus
T9 sequence (residues 1-136, tag not shown): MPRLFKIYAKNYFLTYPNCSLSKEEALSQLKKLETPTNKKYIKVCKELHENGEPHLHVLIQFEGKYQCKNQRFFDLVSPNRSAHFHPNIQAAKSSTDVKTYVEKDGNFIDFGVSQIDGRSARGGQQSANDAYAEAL
Experimental: as §1

[10] = test system: T10, Rep nickase domain of wheat dwarf virus
T10 sequence (residues 1-137, tag not shown): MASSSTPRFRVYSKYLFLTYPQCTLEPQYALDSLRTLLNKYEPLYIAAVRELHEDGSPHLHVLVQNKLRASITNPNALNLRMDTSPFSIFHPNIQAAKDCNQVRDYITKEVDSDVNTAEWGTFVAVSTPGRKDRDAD
Experimental: as §1

Sequence	uncleaved DNA left (log2) [1]	uncleaved DNA left (log2) [2]	uncleaved DNA left (log2) [3]	uncleaved DNA left (log2) [4]	uncleaved DNA left (log2) [5]	uncleaved DNA left (log2) [6]	uncleaved DNA left (log2) [7]	uncleaved DNA left (log2) [8]	uncleaved DNA left (log2) [9]	uncleaved DNA left (log2) [10]
CCGAACG	0.0102	-0.134	-0.678	-0.379	-0.108	-1.05	0.21	-0.0545	-0.101	-0.264
CCTGACA	-0.0293	-0.119	0.00519	-0.162	0.105	0.311	-0.079	-0.0343	-0.228	0.0677
ATCTTCT	-1.05	-0.321	-0.378	-2.39	-0.0235	-0.926	-3.41	-0.0238	-0.0515	-0.0893
AAGCACT	0.115	0.0574	-0.0547	-1.78	0.0866	0.456	-3.03	0.11	-0.0465	0.107
ACCGCTC	-0.0853	-0.123	-0.228	-0.477	0.0401	-0.834	0.0638	-0.0792	-0.0808	-0.114
CAGGGTT	0.198	0.114	0.301	1.08	0.176	1.66	-0.446	0.232	0.00936	0.0507
AGGTTGT	-0.0196	0.0453	0.0675	0.262	0.0089	0.362	-0.821	0.0506	0.0201	0.0418
CGCTCAC	-0.169	-0.0462	-0.0405	-0.538	-0.0788	-0.524	-0.108	-0.189	-0.085	-0.0905
TACGTGA	0.201	-0.123	-0.0785	-0.698	0.104	-0.831	0.00373	-0.0425	-0.0511	-0.105
ATGCATT	0.12	0.0104	-0.0875	-1.45	0.0612	-0.417	-0.756	0.0334	0.239	0.139
CGATTTG	0.0388	0.0878	-0.0199	0.577	0.0626	0.882	0.19	0.0215	0.058	0.136
GGTCTCC	0.0356	0.0514	-0.116	0.0367	0.0455	0.83	0.0953	-0.0686	0.0773	-0.00577
TTGCGAT	-0.0164	-0.0837	-0.686	-0.0436	0.00339	-0.819	0.098	-0.0487	0.0145	-0.185
GTTGGAG	-0.0725	-0.0753	-0.103	0.00518	-0.035	-0.574	0.0631	-0.0161	-0.0104	-0.0695
TACGAAA	0.067	0.0443	0.0795	-0.798	0.108	-0.585	0.0244	-0.0105	-0.0078	0.0471
CTTTGTC	-0.0673	-0.167	-0.372	-0.602	-0.0383	-1.12	-0.101	-0.182	0.00691	-0.21
AGCTATG	0.044	0.0294	-0.0788	0.607	-0.00787	1.4	0.0481	0.141	0.0694	0.11
GAGTCAG	-0.0285	0.0896	0.122	0.725	0.0297	-0.473	0.0313	-0.0272	0.123	0.152
TACATGG	0.104	0.0187	-0.015	0.158	-0.082	-0.433	0.0782	0.0626	-0.0404	0.0152
TAAACGG	0.146	0.206	0.602	1.68	0.0599	2.09	0.224	0.208	0.0822	0.241
GAAATTT	-0.147	-0.105	-2.74	-2.47	-0.0416	0.433	-1.83	-0.381	-0.0123	-1.33
CATATGG	-0.000167	-0.00455	-0.3	-0.0184	0.167	-0.968	0.195	-0.0111	-0.0708	0.0318
ACCAGGA	0.0359	0.162	0.205	0.566	0.0673	-0.451	0.179	0.0753	0.0906	0.0818
GAATCGA	0.178	0.0507	0.00563	-0.189	0.148	-0.576	0.134	0.0676	0.0483	0.097
GGGTAGA	-0.0085	0.12	0.832	1.96	0.0388	2.21	0.261	-0.000265	0.152	0.156
CCTCTAA	-0.0965	0.0099	-0.248	-0.493	-0.0806	-0.65	-0.00499	-0.0599	-0.128	0.0161
ATTCCGC	-0.00606	-0.0322	-0.374	-0.575	0.036	-1	-0.571	-0.105	-0.0379	0.0626
GGTTAAT	-0.193	0.136	0.547	1.48	0.0135	2.01	-1.17	-0.0105	0.105	0.132
GAGGACA	0.0254	0.127	0.9	2.17	0.0669	2.27	0.259	0.106	0.0515	0.223
GCCTCGG	-0.109	-0.0614	0.417	1.24	0.0247	1.51	0.00714	-0.0307	-0.142	-0.0575
